In PubChem BioAssay AID624417 (National Center for Advancing Translational Sciences (NCATS), 2012):
“And” between values parts separate entries of the source, which are not always exact repeats. Equal values may be shown once. Hit rate of the full screen: of about 410,000 compounds, about 6,400 (1.6%) were called active. Inconclusive means that the source gave no clear call. Such entries were picked first, then a sample of the others. Calls come from the whole dose curve; as a rule, active = well fitted inhibition curve with a large enough effect; inconclusive = small, poorly fitted or top-dose-only effect; inactive = no such curve, though single readings can be large or run the other way. A potency beside an inconclusive call is a rough fit, not a confirmed value.

biological target: Glucagon-like peptide 1 receptor (Homo sapiens) (UniProt P43220); assay: qHTS of GLP-1 Receptor Inverse Agonists (Inhibition Mode); settings: HEK293 GLP-1R CRE-luciferase, luminescence, 24 h, GLP-1R form is constitutively active; series mostly up to 38.3 µM; note: nearly all actives have a fitted effect of over 55% in size
Procedure, shortened: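 GLP-1R inverse agonism mode: basal reporter luminescence in engineered HEK293 cells measured after one day of compound exposure at 37 deg C, with a 12 min room-temperature detection step.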
Potency is the fitted concentration of half-maximal effect; tags give direction and shape of the fitted curve.

Chain of UniProt P43220 (P43220 whole entry, looked up): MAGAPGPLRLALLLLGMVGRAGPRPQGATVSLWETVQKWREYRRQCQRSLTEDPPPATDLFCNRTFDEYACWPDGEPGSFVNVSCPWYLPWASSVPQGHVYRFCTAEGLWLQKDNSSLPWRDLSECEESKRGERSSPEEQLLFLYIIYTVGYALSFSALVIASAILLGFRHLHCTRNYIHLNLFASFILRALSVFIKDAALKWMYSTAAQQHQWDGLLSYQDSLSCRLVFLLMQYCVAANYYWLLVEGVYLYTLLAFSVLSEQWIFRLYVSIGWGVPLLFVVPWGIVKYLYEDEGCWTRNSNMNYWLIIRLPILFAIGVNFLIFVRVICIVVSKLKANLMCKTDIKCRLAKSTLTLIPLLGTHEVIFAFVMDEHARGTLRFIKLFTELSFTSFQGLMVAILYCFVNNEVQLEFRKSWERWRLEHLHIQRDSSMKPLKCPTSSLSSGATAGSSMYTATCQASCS

| SMILES | Potency |
| --- | --- |
| Fc1ccc(Nc2c(-c3ccco3)nc3ccccn23)cc1 | inconclusive: 28.2 µM [inhibitor, single point] |
| COc1ccc(OC)c(CN2C(=O)c3ccccc3C2c2nnnn2-c2ccc3c(c2)OCCO3)c1 (centres undefined) | inconclusive: 2.24 µM [inhibitor, full curve, poor fit] |
| O=C(Nc1cccc(NC(=O)c2ccc(-c3ccc(Br)cc3)o2)c1)c1ccccc1 | inconclusive: 0.447 µM [inhibitor, full curve, poor fit] |
| CC1=C(SCc2ccccc2)C(=O)c2ccccc2C1=O | inconclusive: 28.2 µM [inhibitor, single point] |
| COc1ccccc1/C=C/C(=O)NCCC1=CCCCC1 | inconclusive: 12.6 µM [inhibitor, single point] |
| Cc1ccc(S(=O)(=O)Nc2c(NC3CCCCC3)c3ccccc3oc2=O)cc1C | inconclusive: 28.2 µM [inhibitor, single point] |
| COc1ccc(-c2nn(Cc3ccccc3)cc2C(=O)N2CCN(c3ncccn3)CC2)cc1 | inconclusive: 28.2 µM [inhibitor, single point] |
| COc1ccc(C(C)C)cc1S(=O)(=O)NC1CCCC1 | inconclusive: 28.2 µM [inhibitor, single point] |
| O=C(c1cccc2ccccc12)N1CCN(c2ccc([N+](=O)[O-])c(N3CCOCC3)c2)CC1 | inconclusive: 28.2 µM [inhibitor, single point] |
| CCOc1ccc(NC(=O)Cn2cc(C(=O)c3ccccc3)c(=O)c3cc4c(cc32)OCCO4)cc1 | inactive |
| O=C(CSc1ccc2nnc(-c3cccc(F)c3)n2n1)NCC1CCCO1 (centres undefined) | inactive |
| CCc1ccccc1Nc1cc(C(=O)NCCCN(C)C2CCCCC2)c2ccccc2n1 | inconclusive: 10 µM [inhibitor, single point] |
| COC(=O)c1ccc(NC(=O)CC2C(=O)N(c3ccc(C)cc3)C(=O)N2Cc2ccc(OC)cc2)cc1 (centres undefined) | inactive |
| O=C(c1nn2c(C(F)(F)F)cc(-c3cccs3)nc2c1Cl)N1CCCc2ccccc21 | inconclusive: 2 µM [inhibitor, full curve] |
| Cc1ccc(NC(=O)CN(C)C(=O)CSc2nc(C)cs2)cc1 | inactive |
| O=C(Nc1ccc(O)c(-c2nc3ccccc3o2)c1)C1(c2ccc([N+](=O)[O-])cc2)CCCC1 | inconclusive: 3.55 µM [inhibitor, full curve, poor fit] |
| Cc1ccc(C)c(N2CCN(C(=O)c3nn(C)c4c3CS(=O)(=O)c3ccccc3-4)CC2)c1 | inconclusive: 10 µM [inhibitor, single point] and inconclusive: 11.2 µM [inhibitor, single point] |
| CN(C)CCNC(=O)c1cc2c(s1)-c1ccccc1OC2 | inconclusive: 12.6 µM [inhibitor, partial curve, poor fit] |
| Cc1ccc(OCC(=O)Nc2ccc(S(=O)(=O)N3CCOCC3)cc2)c(C)c1 | inconclusive: 11.2 µM [inhibitor, partial curve, poor fit] |
| CC(=O)OC1(C(C)=O)CCC2C3CC4OC45CC(O)CCC5(C)C3CCC21C (centres undefined) | inactive |

| SMILES | Potency |
| --- | --- |
| CCCCOc1ccc(NC(=O)CN2CCN(CC)CC2)cc1 | inconclusive: 10 µM [inhibitor, partial curve, poor fit] |
| CC1CCN(S(=O)C23CC4CC(CC(C4)C2)C3)CC1 (centres undefined) | inconclusive: 12.6 µM [inhibitor, single point] |
| CN(C)c1nc(=NCc2ccco2)ss1 | inconclusive: 0.501 µM [inhibitor, full curve, poor fit] |
| CCc1cccc(NC(=O)CS(=O)Cc2nc(-c3ccc(C)cc3)oc2C)c1 (centres undefined) | inconclusive: 28.2 µM [inhibitor, single point] |
| Cc1ccc(NC(=O)CCC(=O)N2CCSc3ccccc32)cc1 | inconclusive: 28.2 µM [inhibitor, single point] |
| CC1(C)Nc2ccccc2C(=O)N1c1ccc(Br)cc1 | inconclusive: 28.2 µM [inhibitor, single point] |
| COc1ccccc1NC(=O)CC1S/C(=N/N=C2\CCCc3ccccc32)NC1=O (centres undefined) | inconclusive: 11.2 µM [inhibitor, partial curve, poor fit] |
| CN(C)CCCNC(=S)NCCNc1nc2cc3c(cc2cc1C#N)OCO3 | inactive |
| COc1cc(Nc2nc3ccccc3nc2NS(=O)(=O)c2ccc([N+](=O)[O-])cc2)cc(OC)c1OC | inconclusive: 0.562 µM [inhibitor, full curve, poor fit] |
| O=C(CSc1ccc(F)cc1)Nc1ccc(Br)cc1 | inconclusive: 28.2 µM [inhibitor, single point] |
| Cc1ncsc1CCC(=O)N1CCCC(C(=O)c2ccc3c(c2)OCO3)C1 (centres undefined) | inconclusive: 31.6 µM [inhibitor, partial curve, poor fit] |
| CC(C)Oc1ccc(F)cc1-c1cc(C(=O)NC2CCCCC2)[nH]n1 | inconclusive: 10 µM [inhibitor, partial curve, poor fit] |
| CCCCNC(=O)CC1N=C2c3ccccc3N=C(SCC(=O)NCc3ccccc3Cl)N2C1=O (centres undefined) | inactive |
| CC(C)(Oc1ccc(Cl)cc1)C(=O)Nc1nnc2n1CCS2 | inactive |
| Cc1ccc(CC2CC(=O)N(c3cc(C)ccc3C)C2=O)cc1 (centres undefined) | inconclusive: 1.78 µM [inhibitor, full curve] |
| O=S(c1ccc2ccccc2c1)c1cnns1 (centres undefined) | inconclusive: 22.4 µM [inhibitor, partial curve, poor fit] |
| COc1cc(OC)cc(-c2c(-c3ccc(F)cc3)c3cc(-c4ccc5[nH]ccc5c4)ccc3n2C)c1 | inconclusive: 1.26 µM [inhibitor, partial curve, poor fit] |
| Cc1ccc(-c2[nH]c3ccccc3c2SCCNC(=O)c2cc3ccccc3oc2=O)cc1 | inconclusive: 10 µM [inhibitor, partial curve, poor fit] |
| Cc1cc(OCc2cc(C(=O)N(C)C3CCOC3)no2)cc(C)c1Cl (centres undefined) | inconclusive: 31.6 µM [inhibitor, partial curve, poor fit] |
